# Measurements as given in article PMC6919601, “Identification of Plasmodium dipeptidyl aminopeptidase allosteric inhibitors by high throughput screening” (PLoS ONE, 2019).
# The whole screen tested about 110,000 compounds, of which about 230 (0.21%) showed an effect of 50% or more. This is one part of the list.
# Molecular target: DPAP1 (Plasmodium falciparum, UniProt Q8IIJ9)
# Assay: primary screen, percent inhibition; read by cleavage of a fluorogenic dipeptide substrate; higher = more effect of the substance
# Parameters: species or system P. falciparum D10 trophozoite lysates; single well
# 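Also: 30 min substrate incubation versus DMSO and 10 µM JCP410 controls.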
# Chain of DPAP1 (Q8IIJ9 whole entry, looked up): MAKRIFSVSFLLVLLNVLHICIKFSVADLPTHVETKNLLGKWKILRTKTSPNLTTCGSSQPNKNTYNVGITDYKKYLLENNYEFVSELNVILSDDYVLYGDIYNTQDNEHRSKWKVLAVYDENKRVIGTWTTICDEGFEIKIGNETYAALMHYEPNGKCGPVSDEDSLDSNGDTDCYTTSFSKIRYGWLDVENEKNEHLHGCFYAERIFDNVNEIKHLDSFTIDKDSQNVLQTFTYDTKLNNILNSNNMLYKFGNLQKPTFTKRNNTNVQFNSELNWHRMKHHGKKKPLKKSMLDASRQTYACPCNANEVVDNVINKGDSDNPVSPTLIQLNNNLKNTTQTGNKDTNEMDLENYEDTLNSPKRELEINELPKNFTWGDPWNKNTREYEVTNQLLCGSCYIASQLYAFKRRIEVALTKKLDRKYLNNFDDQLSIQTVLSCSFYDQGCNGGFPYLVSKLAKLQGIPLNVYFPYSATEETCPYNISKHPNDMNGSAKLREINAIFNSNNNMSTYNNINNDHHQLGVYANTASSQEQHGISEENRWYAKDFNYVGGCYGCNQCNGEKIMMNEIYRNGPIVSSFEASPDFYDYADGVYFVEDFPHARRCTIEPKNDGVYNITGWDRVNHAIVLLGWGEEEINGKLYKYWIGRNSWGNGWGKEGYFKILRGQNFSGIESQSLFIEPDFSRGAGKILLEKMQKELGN
row,SMILES,% Inhibition @ 10 uM
1,CC(=O)c1cc(C(C)(C)c2ccc(O)cc2)cc(C(C)=O)c1O,4.12%
2,CCOc1cccc2c1OC1(C)CC2C(C(=O)c2ccccc2)C(=O)N1 (stereo not drawn),-2.21%
3,COc1cc(/C=C2\SC(Nc3ccc(F)cc3)=NC2=O)cc(OC)c1OC,-7.16%
4,O=C(c1scc2c1CCCC2)N1CCN(c2ccccc2)CC1,-14.4%
5,CCOc1ccc(NC(=O)C2=C(C)NC(=O)NC2c2ccccc2F)cc1 (stereo not drawn),-2.05%
6,CC(=O)N(CN1C(=O)c2cc(Cl)c(Cl)cc2C1=O)c1cccc(C)c1,3.24%
7,Cc1cc(-c2ccc(C)c(S(=O)(=O)N3CCN(C(=O)c4ccco4)CC3)c2)on1,-3.98%
8,CN1C(=O)c2[nH]nc(-c3ccccc3)c2C1c1ccccn1 (stereo not drawn),-1.07%
9,Cc1nn(C)c(C)c1S(=O)(=O)N1CCC(C(=O)NC2CCCc3ccccc32)CC1 (stereo not drawn),0.708%
10,COc1cc(C2C3=C(O)CC(C)(C)CC3=NC(C)=C2C(=O)Nc2ccc(F)cc2)cc(OC)c1OC (stereo not drawn),-4.48%
11,O=C(c1ccc([N+](=O)[O-])cc1)N1CCCCCC1,-3.79%
12,O=C(Nc1cc(Cl)ccc1Cl)c1ccc(Cn2cc(Cl)cn2)o1,0.317%
13,O=C(NC(Cc1ccccc1)C(=O)NCCc1ccccc1)C1CCCCC1 (stereo not drawn),4.69%
14,Cc1cc(NC(=O)Nc2cn(C)c(=O)c3ccccc23)no1,2.5%
15,CCOc1ccc(C(CC(=O)O)NC(=O)C2CCCCC2)cc1OC (stereo not drawn),0.279%
16,N#CCNC(=O)C(CC(=O)N1CCCC1)CS(=O)(=O)Cc1ccccc1 (stereo not drawn),-5.21%
17,CCOC(=O)c1ccc(CNC(=O)CSc2nnnn2-c2ccc(Cl)cc2)o1,2.7%
18,O=C1CCCN1c1cccc2ccccc12,4.44%
19,CCN(Cc1ccccc1)C(=O)c1ccc(C/N=c2/c(N3CCOCC3)c(O)c2=O)cc1,2.76%
20,Cc1cc(C)c2nc(N3CCC(C(=O)N4CCN(C5CCCCC5)CC4)CC3)sc2c1,4.95%
21,Cc1cc(/C=C2/C(=N)N3C=CSC3=NC2=O)c(C)n1-c1ccccc1,-2.98%
22,COc1ccc2[nH]c(C)c(CCNCc3cn(C)c4ccccc34)c2c1,-4.35%
23,CCC1(C)Cc2ccccc2-c2[nH]nc(O)c21 (stereo not drawn),-1.24%
24,COc1ccc(-c2noc(CCC(=O)Nc3cccnc3)n2)cc1OC,-1.35%
25,COc1cc2c(cc1OC)C(C(=O)NC1CCCCC1)C1c3ccccc3CCN1C2=O (stereo not drawn),0.208%
26,Cc1cccnc1NC(=O)CN1Cc2ccccc2C1=O,5.08%
27,Nc1cc[n+](CCCc2ccccc2)cc1,-2.53%
